Test results: paper PMC12136788
This is one part of the list.

B1: chr12:70442348:70442349:-_ENSMUSG00000020982_ENSMUST00000021368|mus_hu|motif|central (ssRNA)
RNA: GGGAGUUCUACAGUCCGACGAUCAACAGGGUCUCCUUGAGCCUGGGCUUCUUUCACAAUUAACCCAAUUUCUGUCCAAUCGGUCUGGUUAGCUAAAGCACUUCGAACUACCUGAAUGGCUCUGUCAACUAUUUGUAGGUUCAUCAACAGAGGAUUGAGCAUCA
B2: 59170736_59171261_1518_CDS_ENSMUSG00000025235_ENSMUST00000026265|mouse|control|control (ssRNA)
RNA: GGGAGUUCUACAGUCCGACGAUCCUCUGGCUCCAGUGGCAGUGAUGGUGGCUUUGGGAGCUGGGCUCCUACAGCACCUGAAAGGAUCUUUCUGUAUGCAGCUGCUGAAGACAUCGCCUGUCCUAGAGCUUGAAUGGAACCCAGCAACAGAGGAUUGAGCAUCA
B3: chr2:230668852:230668853:-_ENSG00000153827_ENST00000389045|hu_mus|FALSE|FALSE (ssRNA)
RNA: GGGAGUUCUACAGUCCGACGAUCUAUCCUAAGAAUUGCUCUAAGGCACUUGUGUCUGACCGCAGGGCCUGCUGAGGAGCUGUACACUUCAUAGAGAACACCAAACAAGGUCUUAAUGAAAGACUUAGCCAGUUCCGGAUCUUCCAACAGAGGAUUGAGCAUCA
B4: chr18:2804189:2804190:+_ENSG00000101596_ENST00000320876|hu_hu|motif|central (ssRNA)
RNA: GGGAGUUCUACAGUCCGACGAUCCAAUGCCUUGGAUUUAAAACAUGACUCCUUCUUGAUACAAUGAAUUAUAAAAGCAAACGGGUUCCACAUAUUAAUUAUACGUUCAAGUCUAGUUCCUAAAAAGUCAUUUCUCUUUAACCUCAACAGAGGAUUGAGCAUCA
B5: chr8:89189611:89189612:+_ENSMUSG00000047866_ENSMUST00000034141|mus_mus|FALSE|FALSE (ssRNA)
RNA: GGGAGUUCUACAGUCCGACGAUCGAAAAGAACUUGGGAAAGGUCAAAGGCCACAUUUAGAUAGUGAUCUGUGAAGUUAUGGUUUUGUUCAGGAUCCAACACCUCAAGCAGCGCAGCUGCAGGAUCCCCCUGCAGGCUUUUCCCCAACAGAGGAUUGAGCAUCA
B6: chr1:201932794:201932795:+_ENSG00000134375_ENST00000367287|hu_hu|motif|central (ssRNA)
RNA: GGGAGUUCUACAGUCCGACGAUCUAAGGCACCACUUGUGAUGGAGUUCCAGGGAUCUUCCUUUCCUCUGACUUGAACCAUACGGCAGUCAAUCAUGGAAAACAGCCCUCCCCAAACUGCAAAGCUACCUCCUAACUGUGGAGCCAACAGAGGAUUGAGCAUCA
B7: chr3:41280641:41280642:+_ENSG00000168036_ENST00000349496|hu_hu|FALSE|FALSE (ssRNA)
RNA: GGGAGUUCUACAGUCCGACGAUCCAUGGGGUCCAUACCCAAGGCAUCCUGGCCAUAUCCACCAGAGUGAAAAGAACGAUAGCUAGGAUCAUCCUGGCGAUAUCCAAGGGGUUCUCCCUGGGCACCAAUAUCAAGUCCAAGAUCCAACAGAGGAUUGAGCAUCA
B8: 37400315_37400435_1777_CDS_ENSG00000101442_ENST00000243903|human|control|control (ssRNA)
RNA: GGGAGUUCUACAGUCCGACGAUCUCCACCAGCAGCGGAGCCCUUGCUGGAUGCCUGGGCAUCUGAGGAGCGGGAGGCCUGCUUCGGCAGGCGGAUGGGGACAUAGAUGUUGGAAGCACAGUGCUCCUUGAGGUACUCUCCUCCCAACAGAGGAUUGAGCAUCA
B9: chr17:55917276:55917277:-_ENSG00000181610_ENST00000313608|hu_hu|motif|central (ssRNA)
RNA: GGGAGUUCUACAGUCCGACGAUCGUUUUCUUCCAACGCAGUCUGUGGUCUGACACUCAAGUGUUCGGAUUUCCGGGAAACGUGACGGCCUCCGUGUUGAGUCCUUGCUUCGCCUACUCGUCUUAAAAUGACACCUUCUGCCAACAACAGAGGAUUGAGCAUCA
B10: chr16:94664741:94664742:+_ENSMUSG00000040785_ENSMUST00000117648|mus_hu|mus_mus_mus_hu_False|8_58 (ssRNA)
RNA: GGGAGUUCUACAGUCCGACGAUCUGGUACUGAUCUUGGUAGCUGAUAUUCAGGAGAAAGGCUGGCCAAGGGUGUAUAAAUGCUAGUGUACUGGGGCAAACCUGGUAACACGUUUAUGUAUGCUGGCCGCUGGGUGAUGAUAUCCAACAGAGGAUUGAGCAUCA
B11: chr17:64801638:64801639:+_ENSG00000154229_ENST00000413366|hu_mus|hu_hu_hu_mus_False|38_88 (ssRNA)
RNA: GGGAGUUCUACAGUCCGACGAUCUAUAUAUAUAUAUACAUAUGUACACAUAUGUAGUAAAACCCUAGUUAAACGUGUAAAGUAGCCAUUCAUUUUUGAAAUUUUAUCUACAUUAAAAAAUUAAUAUAUCUGAUAGAGUGCCAGCAACAGAGGAUUGAGCAUCA
B12: chr5:143131892:143131893:+_ENSMUSG00000029578_ENSMUST00000036872|mus_hu|FALSE|FALSE (ssRNA)
RNA: GGGAGUUCUACAGUCCGACGAUCCAGAAUCGUGUUGGAGUAGCUGUAGUUGCAGAUCUCAGUUCCCUUCUUAAAGUGGCAAACCUUUAGCUUCCUUGGUGCUUUAAGGCUGACGAUGGCCACUAGGCUGCUGGAGAACAAUCUCAACAGAGGAUUGAGCAUCA
B13: chr17:57816259:57816260:+_ENSG00000062716_ENST00000262291|hu_mus|FALSE|FALSE (ssRNA)
RNA: GGGAGUUCUACAGUCCGACGAUCCAGAUAAAGCAGAAAGGUGUGCAGUCCUGUUCCAAGACCAACAGAGGACAAAAUCCCCAGGCCUAUCCAGUAUGCAUACAAAAGAAACUGCUUCUCUAUCCGCUGCACAUACUGUUGGUGCAACAGAGGAUUGAGCAUCA
B14: chr20:21346065:21346066:+_ENSG00000088930_ENST00000377191|hu_mus|FALSE|FALSE (ssRNA)
RNA: GGGAGUUCUACAGUCCGACGAUCUCCUGGAAGCAUUGCAGCUUUAAAAACAUAAUCUUCAGCAAACUGUGGAUCUUUAAAAUUAAUACUGACUGCAGUGUUCUGUGUCAGGUCCCGCAACAUGGGCACAGGGGAACAUACUGUCAACAGAGGAUUGAGCAUCA
B15: chr5:174939138:174939139:+_ENSG00000164466_ENST00000321442|hu_hu|FALSE|FALSE (ssRNA)
RNA: GGGAGUUCUACAGUCCGACGAUCGCCAACUUUGAGUUCCCUUUGCCUCAUUAAUGGAAUAUUAAUGCAAUUAGCAGCAGCUACGGCAGCAAAGGGAACAAAACGUCCUAUCAGUGGUGAGACAUGCUUGGUCAAUGCAUUGAGCAACAGAGGAUUGAGCAUCA
B16: 242203985_242206293_344_CDS_ENSG00000115677_ENST00000391976|human|control|control (ssRNA)
RNA: GGGAGUUCUACAGUCCGACGAUCAGGGUCGCUCUCCUCUUCUGAAUUUAGAGUGGCAACUUUGAUUUGUUGCGGAACCAGCCCACUUCGGUGUUCAGCAAAACUCUCUUGGGUCAAAACUGCAACGGAACUCAUGGUUGAUCUCAACAGAGGAUUGAGCAUCA
B17: chr4:54294246:54294247:+_ENSG00000145216_ENST00000306932|hu_mus|FALSE|FALSE (ssRNA)
RNA: GGGAGUUCUACAGUCCGACGAUCUGGAGGAGGAGGAAGGUGAGUAGGAGGAGCCCCUGGAGGGAAAAAUGGAGGUGGUUUGCUGAAAUUGUUGUCUACUUCAGUGGCAGAUCUGUCAGAAAGGACCUGUAUAUUGCUGUUCUCCAACAGAGGAUUGAGCAUCA
B18: 29183081_29183201_1843_3pUTR_ENSG00000159873_ENST00000249064|human|control|control (ssRNA)
RNA: GGGAGUUCUACAGUCCGACGAUCGGGGGAAAAAAAAAAAAACUUGCUAAUACAAGUAUAACUUUUUAAAAAAAUUACCAAAGUUAUCAAUGUUGGGUUUAGCUGAUAAAGCACUUCCUUAAGAUGAACUAAAGGAUGCUUCUCCAACAGAGGAUUGAGCAUCA
B19: chr9:96305504:96305505:+_ENSG00000048828_ENST00000277165|hu_hu|FALSE|FALSE (ssRNA)
RNA: GGGAGUUCUACAGUCCGACGAUCAGCUGCCCAUUCUUUAAUGAUCACUGGUGAAAAUUCUGGUGGAAGUCUGUUCUUUCUAAAAGCAAGUCUCUCAGUUUUCUUUCUGCUUUCUGCCAAACUAAACAGGACUCCGUAAACAUACAACAGAGGAUUGAGCAUCA
B20: chr14:21319760:21319761:-_ENSMUSG00000021816_ENSMUST00000161445|mus_hu|FALSE|FALSE (ssRNA)
RNA: GGGAGUUCUACAGUCCGACGAUCAGCCAGCAGCAAAUCACCCUGGUGGCUCUCUAAGCAACUUGAGUACUCACAAUAAACUAAAAUUUCUCAUAACAUCUAGGUAACCUAUACAUGUCGUACCUGUACAUCAUAGGUCUAUAUCAACAGAGGAUUGAGCAUCA
B21: chrX:17831648:17831649:+_ENSMUSG00000037369_ENSMUST00000044484|mus_hu|FALSE|FALSE (ssRNA)
RNA: GGGAGUUCUACAGUCCGACGAUCAGUGGAUUUUGGAGAAGGUGUUGCUGUUGAAAUGGCUGAAGAUGGUGAAGAGGCAACAGAGUUAUCAGUCUUUGUAUGAACAGCUGGGUGGAUGUUAUUGACUUUGUCACAGGUUCCAGUCAACAGAGGAUUGAGCAUCA
B22: chrX:51638331:51638332:+_ENSG00000179222_ENST00000326587|hu_mus|FALSE|FALSE (ssRNA)
RNA: GGGAGUUCUACAGUCCGACGAUCACGUGCCUGAGAGUAAUCAUUUGGCCCCUUUGUGGUGGCAUUCUGGGCCUUAAAGCCUGUCUUAGGCCUGGCAGCAGCUGCUGAAACCUCAGUAUCAGCCUUCUCAUUGGCAGUUGGGGGCAACAGAGGAUUGAGCAUCA

Each binder was assayed against T1, UNK ZnF1-3 (human, UniProt Q9C0B0 31-174) (assay: nsRBNS (natural sequence RNA bind-n-seq); RBNS binding buffer (assumed for nsRBNS): 25 mM Tris pH 7.5, 150 mM KCl, 3 mM MgCl2, 0.01% Triton X-100, 500 ug/ml BSA, 20 U/ml SUPERase-In, 4 C; UNK is unkempt and MSI1 is Musashi-1; names of the RNAs are library labels; protein concentration not given here; high values mean tight binding).
T1 sequence: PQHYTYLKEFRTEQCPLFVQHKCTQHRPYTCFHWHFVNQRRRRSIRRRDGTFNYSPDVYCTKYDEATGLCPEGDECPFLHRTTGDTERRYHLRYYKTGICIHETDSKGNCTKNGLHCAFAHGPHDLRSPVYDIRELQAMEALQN
With B1 the binding signal was 0.744 enrichment R.
B2 showed a binding signal of 0.757 enrichment R.
For B3, the binding signal was 0.787 enrichment R.
For B4, the binding signal was 1.11 enrichment R.
Binder B5 has a binding signal of 0.867 enrichment R.
B6 showed a binding signal of 1.15 enrichment R.
For B7, the binding signal was 0.891 enrichment R.
In the case of B8, the binding signal is reported as 0.843 enrichment R.
With B9 the binding signal was 0.504 enrichment R.
B10 gave a binding signal of 1.04 enrichment R.
In the case of B11, the binding signal is reported as 2.56 enrichment R.
With B12 the binding signal was 0.743 enrichment R.
In the case of B13, the binding signal is reported as 0.939 enrichment R.
Work on B14 yielded a binding signal of 1.4 enrichment R.
B15 gave a binding signal of 0.695 enrichment R.
B16 gave a binding signal of 0.812 enrichment R.
B17 showed a binding signal of 1.94 enrichment R.
Binder B18 has a binding signal of 1.02 enrichment R.
In the case of B19, the binding signal is reported as 1.77 enrichment R.
B20 showed a binding signal of 1.16 enrichment R.
B21 gave a binding signal of 1.47 enrichment R.
B22 gave a binding signal of 0.913 enrichment R.
